Data set [1] in a line: Stability in vehicle buffer at 4° C. for 5 weeks, by lectin pathway IC50 of stored vs fresh samples. The class given is physicochemical. The note with it: stored at 4° C.; no significant difference of IC50 vs fresh sample. Here is the method: For testing the stability of these four proteins, lyophilized samples from the same batch were compared. One sample was dissolved in 1.4% sodium bicarbonate buffer and stored at 4° C. for 5 weeks. The other aliquot sample was freshly dissolved into vehicle buffer. Lectin pathway inhibitory potency of these samples was assessed at the same time on the same plate as described in F.5.1.
Stability of EVO24L (SEQ ID NO: 114) was tested the same way by determining the IC50 values of a freshly prepared EVO24L samples and EVO24L samples stored at 4° C. for 5 weeks.

The subject of data set [2] is complement lectin pathway. In words: In vivo lectin pathway inhibition in rats, residual lectin pathway activity of serum samples ex vivo (C4b deposition). Conditions: rat, 4.5 μmol/kg slow iv bolus only. On the procedure: Two such campaigns were conducted. In the first campaign EVO21 (SEQ ID NO: 12), EVO24 (SEQ ID NO: 15), EVO23 (SEQ ID NO: 3) and EVO214 (SEQ ID NO: 8) of the present invention were tested in comparison to EVO2 (SEQ ID NO: 2). In the second campaign, an Fc-fusion form of EVO24 referred to as EVO24L (SEQ ID NO: 114) was tested. The description below under F.9.1., details the general procedure with specific data corresponding to the first campaign. Specific differences in the second campaign are explained in section F.9.2.
Healthy male Wistar-Hanover rats (4 animals/test protein) were anesthetized by intraperitoneal (ip) injection of pentobarbital sodium and repeated doses to maintain anaesthesia. A heating pad assured maintenance of body temperature. The ECG of the animals (leads I-II-III) was monitored during the experiments. In the event of spontaneous breathing cessation or a significant reduction in heart rate or cardiac arrhythmias, the animals were intubated per os and connected to a rodent ventilator (Ugo Basile, Model 7025, Varese, Italy) for artificial ventilation at a rate and a stroke volume according to the manufacturer's recommendations. […]
Activity of the complement lectin pathway activity was assessed by activation of the serum samples on a mannan-coated surface and measurement of C4b deposition by ELISA measurement. […]

The text below walks through data of patent US20260098080A1, “A MODIFIED PROTEIN SCAFFOLD AND USE THEREOF” (EVOLVERITAS BIOTECHNOLÓGIAI KORLÁTOLT FELELOSSÉGU TÁRSASÁG, priority 2022, published 2026).

B1: EVO24L: chimeric protein containing EVO24 fused to an IgG1-type Fc domain that forms stable homodimers, non-glycosylated, produced in E. coli (protein)
chain: GSKPDFCFLENDPGPCRALKRRYFYNNQTKQCERFYYGGCLGNMNNFETLEECKNICEDGGTGGGSGSSSGS[human IgG1 Fc with changes omitted]
modifications: homodimer
Take B1: the “stability in vehicle buffer” value in data set [1] is “at least 5 weeks”. Moreover, the lectin pathway inhibition entry is given as “about 95%” in data set [2] (4-hour time point) and “over 98%” in data set [2] (5 minutes).
